Out of some 52,000 compounds screened, about 1,700 (3.3%) were called active. Rule as the data show it: active = survival mostly below about 52% (no sharp cut-off); inactive = mostly above about 56%. The list shows a part of the results.
system: Wild type; test: S. aureus survival, RN4220 and DeltatarO strains – OD600, teichoic acid synthesis inhibitors, primary screen (AID 463173); conditions: S. aureus RN4220 wild type/DeltatarO growth, OD600, 18 h, active compounds read low, screened at 18.75 µg/mL (by protocol)

| Compound | survival |
| --- | --- |
| CC(C)CN(CCNC(=O)CN1C(=O)CSc2ccc(S(=O)(=O)N3CCOCC3)cc21)CC(C)C | inactive: 68% |
| CCOc1ccc(S(=O)(=O)N(CC(=O)Nc2ccc3c(c2)OCO3)c2ccccc2)cc1 | inactive: 96% |
| Cc1ccc(NC(=O)Cn2c(=O)n(-c3ccccc3)c(=O)c3ccc(C(=O)NCc4ccc5c(c4)OCO5)cc32)c(C)c1 | inactive: 138% |
| COc1ccccc1CNC(=O)c1ccc2c(c1)CCN2S(=O)(=O)c1ccccc1 | inactive: 89% |
| O=C(Nc1c(-c2ccc(F)cc2)nc2ccccn12)c1ccccc1F | inactive: 127% |
| O=C(/C=C\c1ccc2c(c1)OCO2)NC1CC(=O)N(c2cccc(F)c2)C1 (stereo not drawn) | inactive: 60% |
| CCOC(=O)c1cccc(NC(=O)c2ccc3nc(Cc4ccccc4)oc3c2)c1 | inactive: 69% |
| N#Cc1c2c(c(N3CCOCC3)[nH]c1=S)CCCC2 | inactive: 110% |
| Cc1ccc(-n2c3c(c(=O)[nH]c2=O)C(NC(=O)c2ccccc2C)(C(F)(F)F)C(=O)N3)cc1 (stereo not drawn) | inactive: 85% |
| COc1ccccc1C(=O)NCCN1CCCC1 | inactive: 111% |
| COc1ccccc1N1CCN(C(=O)CSc2n[nH]c(-c3ccccc3)n2)CC1 | inactive: 63% |
| Cc1cc2ccccc2n1-c1ccc(C(=O)N2CCC(C(=O)NCc3ccccc3Cl)CC2)s1 | inactive: 60% |
| CC(CNC(=O)Cc1ccc(NC(=O)N2CCSc3ncccc32)cc1)c1ccccc1 (stereo not drawn) | inactive: 73% |
| CCOC(=O)C1=C(CN2CCN(c3ccccc3F)CC2)NC(=O)NC1c1ccc(Cl)cc1 (stereo not drawn) | inactive: 76% |
| COc1ccc(-c2cn3c(n2)sc2cc(C(=O)Nc4cccc(OC)c4)ccc23)cc1 | inactive: 86% |
| COC(=O)c1scc(-c2ccc(C)cc2)c1S(=O)(=O)Nc1ccc(N(C)C)cc1 | inactive: 123% |
| Cc1ccccc1NCc1cccn1-c1nnc(N2CCC(C)CC2)s1 | inactive: 68% |
| Cc1nc2c(-c3ccccc3)c(C)nn2c(C)c1CCC(=O)NCc1ccc(F)cc1 | inactive: 75% |
| Cc1c(Cl)cccc1-n1nc(C)c2c(C(=O)NCc3ccccc3)cc(C3CC3)nc21 | inactive: 73% |
| CCOc1ccc(NC(=O)CC2C(=O)N(c3ccccc3)C(=O)N2Cc2ccc3c(c2)OCO3)cc1 (stereo not drawn) | inactive: 69% |
| Cc1ccc(CNC(=O)C2CCN(S(=O)(=O)c3cc(-c4noc(C)n4)ccc3C)CC2)cc1 | inactive: 136% |
| Cn1c(=O)oc2cc(S(=O)(=O)Nc3ccccc3O)ccc21 | inactive: 125% |

| Compound | survival |
| --- | --- |
| Cc1ccc(C(=O)Nc2nccs2)c(C)c1 | inactive: 105% |
| O=S(=O)(NC1CC1)c1ccc(S(=O)(=O)N2CCC3(CC2)OCCO3)cc1 | inactive: 103% |
| O=C(NCc1ccc(Cl)cc1)C1CCN(S(=O)(=O)Cc2ccccc2)CC1 | inactive: 86% |
| COc1ccc(-c2cc(C(F)(F)F)nc(SCC(=O)N3CCC(C)CC3)n2)cc1 | inactive: 55% |
| Cc1ccc(-c2cc(NC(=O)COc3ccc(Cl)cc3C)on2)cc1 | inactive: 89% |
| CCOc1ccc(CCNC(=O)c2cc3c(s2)-c2ccccc2OC3)cc1OCC | inactive: 90% |
| O=c1c(-c2ccc(Cl)cc2)c(C(F)(F)F)oc2c(CN3CCCCC3)c(O)ccc12 | inactive: 126% |
| CCCC(CCC)C(=O)Nc1cc(-c2cn3cccnc3n2)ccc1OC | inactive: 82% |
| CCc1ccc(N2C(=O)CSC23C(=O)N(Cc2ccc(C)cc2)c2ccccc23)cc1 (stereo not drawn) | inactive: 66% |
| O=C(O)CN1C(=O)CC(Cc2ccccc2)C1=O (stereo not drawn) | inactive: 98% |
| Cc1ccccc1Nc1c(-c2ccc(Cl)s2)nc2cccc(C)n12 | inactive: 80% |
| COc1ccc(S(=O)(=O)c2c(C)c(NS(=O)(=O)c3ccccc3)cc(C)c2O)cc1 | inactive: 90% |
| O=C(CSc1nc2c(c(=O)[nH]1)CCC2)Nc1ccccc1C(F)(F)F | inactive: 84% |
| Cc1oc(-c2cccc(Cl)c2)nc1CN1CCC(C(=O)NCCCN2CCN(c3ccc(F)cc3)CC2)CC1 | inactive: 119% |
| COc1ccc(Cn2cc(C(=O)c3ccc(C)cc3)c(=O)c3cc(OC)c(OC)cc32)cc1 | inactive: 81% |
| CCn1cc(C(=O)NCc2ccccc2)c(=O)c2cc(S(=O)(=O)N3CCc4ccccc4C3)ccc21 | inactive: 77% |
| CCOC(=O)C1CCCCN1S(=O)(=O)c1csc(C(N)=O)c1 (stereo not drawn) | inactive: 116% |
| O=C(c1ccc2c(c1)CCCC2)N1CCN(c2nc3c(F)cccc3s2)CC1 | inactive: 72% |
| COc1cc(C(c2c(C)[nH][nH]c2=O)c2c(C)[nH][nH]c2=O)ccc1OC(=O)c1cccc(C)c1 | inactive: 87% |
| Cc1ccc(C2=CC(c3ccccc3F)n3c(nc4ccccc43)N2)cc1C (stereo not drawn) | inactive: 81% |
| COc1ccc(CC(=O)NCc2ccc3c(c2)CCN3C(=O)c2ccccc2)cc1OC | inactive: 99% |
| CCOC(=O)CN1N=NC2C(=O)N(c3ccccc3)C(=O)C21 (stereo not drawn) | inactive: 102% |

| Compound | survival |
| --- | --- |
| COc1ccc(C2=NC(c3ccncc3)=Nc3ccc(Br)cc3N2)cc1 | inactive: 94% |
| CCOC(=O)C1CCN(C(c2cccnc2)c2nnnn2Cc2ccccc2)CC1 (stereo not drawn) | inactive: 98% |
| CCC1CN(Cc2ccccc2)CCC1=O (stereo not drawn) | inactive: 122% |
| CN(C)c1ccc(-n2c(CCC(=O)O)ccc2-c2ccccc2)cc1 | inactive: 65% |
| CCn1cc(C(=O)N2CCN(c3ccc(F)cc3)CC2)c(=O)c2cc(S(=O)(=O)N(C)C3CCCCC3)ccc21 | inactive: 85% |
| CC(C)(C)c1ccc(OCCn2cc(C(=O)c3ccco3)c3ccccc32)cc1 | inactive: 37% |
| COc1ccccc1N1CCN(C(CNC(=O)C(=O)NCc2ccc(C)cc2)c2cccnc2)CC1 (stereo not drawn) | inactive: 78% |
| CCc1cccc(NC(=O)C2CCCN(S(=O)(=O)c3cccs3)C2)c1 (stereo not drawn) | inactive: 96% |
| Cc1ccc(NS(=O)(=O)c2ccc3c(c2)CC(C)N3C(=O)C2CCC2)cc1Cl (stereo not drawn) | inactive: 73% |
| CCOc1ccccc1NC(=O)c1c(NC(=O)C(C)Oc2ccc(Cl)cc2)sc2c1CCCCC2 (stereo not drawn) | inactive: 69% |
| COc1cc(Cl)c(C)cc1NC(=O)c1cc2c(Cl)nc3ccc(C)cc3c2s1 | inactive: 80% |
| Cc1cccc(-c2nc3c(c(SCc4ccccc4Cl)n2)Cc2c(CO)cnc(C)c2O3)c1 | inactive: 91% |
| CC(C)CCn1c(=O)c2sccc2n2c(CCCC(=O)NC(C)C)nnc12 | inactive: 97% |
| COc1ccc(-c2nc3cc(C)ccn3c2NC(=O)c2ccc(C)c(C)c2)cc1 | inactive: 99% |
| CCNC(=O)c1cnc2c(-c3ccccc3)c(C)nn2c1C | active: 0% |
| CNC(=O)CN1C(=O)c2cccnc2Sc2ccccc21 | inactive: 129% |
| CC(C)CC1N=C2c3ccccc3N=C(SCC(=O)NCCc3ccc(Cl)cc3)N2C1=O (stereo not drawn) | inactive: 80% |
| COc1ccc(-n2c(=O)c3c4c(sc3n(Cc3ccccc3Cl)c2=O)CCC4)c(OC)c1 | inactive: 68% |
| Cc1cccc(OCC(=O)Nc2ccccc2OCc2cc(=O)n3ccccc3n2)c1 | inactive: 100% |
| COc1cccc(CNC(=O)CN(C)S(=O)(=O)c2ccc3[nH]c4c(c3c2)CCCC4)c1 | inactive: 83% |
| OCCNc1nc2nonc2nc1NCCO | inactive: 112% |
| COCc1[nH]nc2c1C(c1ccc(F)c(F)c1)C(C#N)=C(N)O2 (stereo not drawn) | inactive: 109% |

| Compound | survival |
| --- | --- |
| Cc1ccc(CN2CCc3nc(N4CCN(c5ccccc5F)CC4)ncc3C2)cc1C | inactive: 98% |
| Cc1cccc(C)c1-n1ncc(C(=O)Nc2ccc3c(c2)OCO3)c1C1CCN(C(=O)OC(C)(C)C)CC1 | inactive: 73% |
| COc1cccc(-c2cc(C(F)(F)F)nc(NCCc3ccccc3)n2)c1 | active: -7% |
| CCCCOc1ccc(CN2C(=O)C(=O)c3cc(Br)cc(C)c32)cc1OC | inactive: 59% |
| CCOc1ccccc1CNC(=O)C1CCCN(c2ncnc3onc(-c4ccc(F)cc4)c23)C1 (stereo not drawn) | inactive: 85% |
| O=C(NCc1ccccc1Cl)C1CCCN(C(=O)c2cnn(-c3ccccc3)c2-n2cccc2)C1 (stereo not drawn) | inactive: 83% |
| COc1ccccc1CCNC(=O)c1ccc2c(c1)c(C)c(C)n2Cc1ccc(Cl)cc1 | inactive: 77% |
| Cc1ccc2c(c1)-c1nc(-c3ccc4c(c3)NC(=O)CO4)cc(-c3ccc(F)cc3)c1CO2 | inactive: 82% |
| Cc1nc2c(C(=O)NCCc3ccc(Cl)cc3)c[nH]n2c(=O)c1Cc1ccc(Cl)cc1 | active: -14% |
| COc1ccccc1C(=O)Nc1c(C(=O)N(C)Cc2ccccc2)sc2nc(C)c(Cl)c(C)c12 | inactive: 78% |
| COc1ccc(-c2noc(-c3ccc(N4CCN(C)CC4)c([N+](=O)[O-])c3)n2)cc1OC | inactive: 81% |
| Cc1cc(Br)ccc1NC(=O)C1CCN(S(=O)(=O)c2cccc3nsnc23)CC1 | inactive: 119% |
| Cc1ccccc1-c1nnc(CN2CCN(c3ccccn3)CC2)o1 | inactive: 121% |
| Cc1cc(C)c(CO)c(C)c1CO | inactive: 121% |
| COCCCNC(=O)C(=O)Nc1c2c(nn1-c1cccc(Cl)c1)CSC2 | inactive: 63% |
| CCOC(=O)c1ccc(NC(=O)N2CCOc3ccccc32)cc1 | inactive: 85% |
| COC(=O)c1c(-c2cccs2)csc1NC(=O)COc1c(C)ccc(C)c1C | inactive: 67% |
| CCOc1ccc(CCNC(=O)c2cnc3sc(N4CCC(C)CC4)nn3c2=O)cc1 | inactive: 77% |
| Cc1nn(-c2ccccc2)c(-c2ccccc2)c1C(=O)O | inactive: 102% |
| CNC(=O)Cn1cc(S(=O)(=O)Cc2ccccc2F)c2ccccc21 | inactive: 66% |
| CCOc1ccccc1NC(=O)N1CCc2cc(S(=O)(=O)N3CCC(C)CC3)ccc21 | inactive: 78% |
| Cc1nn(C(=O)c2ccccc2F)c(C)c1S(=O)(=O)N1CCCCCC1 | inactive: 70% |

From PubChem BioAssay AID463173 (ICCB-Longwood Screening Facility, Harvard Medical School, 2010)
